{"source": "PubChem BioAssay AID463173", "about": "(ICCB-Longwood Screening Facility, Harvard Medical School, 2010)", "note": "Hit rate of the full screen: of about 52,000 compounds, about 4,300 (8.3%) were called active. No stated cut-off is given here; in the data, active means survival mostly below about 52% (no sharp cut-off); inactive means mostly above about 56%. The list shows a part of the results.", "data": [{"system": "DeltatarO mutant", "assay": "S. aureus survival, RN4220 and DeltatarO strains – OD600, teichoic acid synthesis inhibitors, primary screen (AID 463173)", "conditions": "S. aureus RN4220 wild type/DeltatarO growth, OD600, 18 h, hits give low values, screened at 18.75 µg/mL (by protocol)", "values": [{"molecule": "Cc1ccc(S(=O)(=O)c2c(Nc3cccc(Cl)c3)sc(C(=O)c3ccc4c(c3)OCO4)c2N)cc1", "survival": "inactive: 90%"}, {"molecule": "CCOc1ccc(NC(=O)CSC2=Nc3ccccc3C3=NC(CC(=O)NCc4ccc5c(c4)OCO5)C(=O)N23)cc1", "note": "(stereo not given)", "survival": "inactive: 116%"}, {"molecule": "O=C(OCc1cc(=O)n2c3c(sc2n1)CCCC3)c1cccc(NC(=O)c2ccccc2F)c1", "survival": "inactive: 115%"}, {"molecule": "COc1ccc(-c2nc3ccccc3n2Cc2ccc(Cl)cc2)cc1", "survival": "active: 6%"}, {"molecule": "COc1cc(C)ccc1OCCSc1nnc(-c2ccc(C)cc2)o1", "survival": "inactive: 55%"}, {"molecule": "Cc1ccc(-c2ccc(=O)n(CC(=O)Nc3ccc(F)c(Cl)c3)n2)cc1C", "survival": "inactive: 82%"}, {"molecule": "COc1cccc(NC(=O)CSC2=Nc3ccccc3C3=NC(CCC(=O)NCc4ccco4)C(=O)N23)c1", "note": "(stereo not given)", "survival": "inactive: 73%"}, {"molecule": "CCN(c1ccccc1)S(C)(=O)=O", "survival": "inactive: 96%"}, {"molecule": "COc1ccc(-c2nc(CNS(=O)(=O)c3ccc(C)cc3)cs2)cc1", "survival": "inactive: 90%"}, {"molecule": "COc1ccccc1C(=O)Nc1nnc(S(=O)(=O)N2CCCCCC2)s1", "survival": "active: 56%"}, {"molecule": "CCOc1ccccc1C(=O)Nc1ccc(S(=O)(=O)N2CCCCC2c2cccnc2)cc1", "note": "(stereo not given)", "survival": "inactive: 122%"}, {"molecule": "Cc1ccc(S(=O)(=O)NCc2ccc(/C=C(/C#N)C(=O)NC3CCCCC3)o2)cc1", "survival": "inactive: 71%"}, {"molecule": "COc1ccc(S(=O)(=O)N2c3cc(F)ccc3CCC2C)cc1OC", "note": "(stereo not given)", "survival": "inactive: 89%"}, {"molecule": "CCc1ccc(-c2nnn(Cc3nn[nH]n3)n2)cc1", "survival": "inactive: 74%"}, {"molecule": "Cc1ccc(-c2cc(C(=O)N(Cc3ccccc3)Cc3ccco3)no2)cc1F", "survival": "inactive: 49%"}, {"molecule": "O=C(NCCO)Nc1c[nH]c2c(Cl)cccc2c1=O", "survival": "inactive: 95%"}, {"molecule": "Cn1c(C2CC2)n[nH]c1=S", "survival": "inactive: 96%"}, {"molecule": "COc1ccc(-c2noc(CN3CCN(c4ccccc4OC)CC3)n2)cc1OC", "survival": "inactive: 85%"}, {"molecule": "Cc1ccc(C(=O)COC(=O)c2cc(-c3ccc(Cl)cc3)nc3ccccc23)cc1", "survival": "inactive: 136%"}, {"molecule": "CCc1cccc2c(C=C(C#N)C#N)cn(CC(=O)NC3CCCC3)c12", "survival": "inactive: 77%"}, {"molecule": "CC1CCN(C(=O)CN(c2ccccc2)S(C)(=O)=O)CC1", "survival": "inactive: 99%"}, {"molecule": "CCCCN(CC)C(=O)Nc1ccc2c(c1)N(C)C(=O)c1ccccc1S2", "survival": "inactive: 89%"}, {"molecule": "COc1ccc(C(=O)N2CCc3cc(OC)c(OC)cc3C2COc2ccccc2OC)cc1", "note": "(stereo not given)", "survival": "inactive: 89%"}, {"molecule": "COC(=O)c1c(C)sc(-c2c(-c3cccc(OC)c3)[nH]c3c2c(=O)[nH]c(=O)n3C)c1O", "survival": "active: 43%"}, {"molecule": "CC(=O)Nc1ccc(S(=O)(=O)NC2(C(F)(F)F)NC(=O)N(c3ccc(Cl)cc3)C2=O)cc1", "note": "(stereo not given)", "survival": "inactive: 81%"}, {"molecule": "COc1ccc(C)c2sc(N(Cc3cccnc3)C(=O)CCc3ccccc3)nc12", "survival": "inactive: 78%"}, {"molecule": "CC(=O)c1ccc(NC(=O)CCn2nc(C)c(S(=O)(=O)N3CCC(C)CC3)c2C)cc1", "survival": "active: -5%"}, {"molecule": "CC1CCC(NC(=O)Cn2ncc3c4ccccc4n(Cc4ccc(Cl)cc4)c3c2=O)CC1", "note": "(stereo not given)", "survival": "inactive: 80%"}, {"molecule": "COc1ccc(OC)c(-c2noc(CSc3nnc(Cc4ccccc4)n3-c3cccc(C)c3)n2)c1", "survival": "inactive: 59%"}, {"molecule": "Cc1noc2nc(C(=O)O)nc(N3CCCCC3)c12", "survival": "inactive: 57%"}, {"molecule": "C1=CC2=Nc3cccc[n+]3CN2C=C1", "survival": "inactive: 104%"}, {"molecule": "CCc1nnc(SCC(=O)Nc2cc(Cl)c(OC)cc2OC)c2cc3oc(C)cc3n12", "survival": "inactive: 62%"}, {"molecule": "COc1cccc(N2CC(NC(=O)COc3ccc4ccccc4c3)CC2=O)c1", "note": "(stereo not given)", "survival": "inactive: 107%"}, {"molecule": "Cc1ccccc1CN1C(=O)c2ccccc2Sc2ccc(C(=O)NC3CCCCC3)cc21", "survival": "inactive: 71%"}, {"molecule": "COc1ccc(NC(=O)c2nn(C)c3c2CS(=O)(=O)c2ccccc2-3)cc1Cl", "survival": "active: 56%"}, {"molecule": "COc1ccc(C2=C(Nc3ccc(Br)c(C)c3)c3ccccc3C2=O)cc1", "survival": "active: 0%"}, {"molecule": "CC(C)Nc1ccc(-c2nc(-c3ccncc3)no2)cc1[N+](=O)[O-]", "survival": "inactive: 79%"}, {"molecule": "CCOC(=O)c1c(C)[nH]c(C)c1S(=O)(=O)N1CCCC(C(=O)N2CCN(c3ccccc3F)CC2)C1", "note": "(stereo not given)", "survival": "inactive: 84%"}, {"molecule": "COc1ccc(N(CC(=O)NC(C)c2ccccc2)S(=O)(=O)c2c(C)nn(C)c2C)cc1", "note": "(stereo not given)", "survival": "inactive: 77%"}, {"molecule": "COc1ccc(N2CCN(Cc3nc4c(c(=O)[nH]c(=O)n4C)n3Cc3ccc(C)cc3)CC2)cc1", "survival": "inactive: 113%"}, {"molecule": "CCN(CC)C(=O)CSc1nc2cccnc2n1-c1ccccc1OC", "survival": "inactive: 72%"}, {"molecule": "CC1=NN(Cc2ccccc2)C(=O)/C1=C\\c1ccc(N(C)C)cc1", "survival": "inactive: 66%"}, {"molecule": "CCCCOc1ccc(C2(C)NC(=O)N(C)C2=O)cc1", "note": "(stereo not given)", "survival": "inactive: 104%"}, {"molecule": "Cc1ccc(OCc2nc(-c3ccc(C(=O)NCCc4ccc(Cl)cc4)cc3)oc2C)cc1", "survival": "inactive: 84%"}, {"molecule": "Cc1ccc(NC(=O)CN2C(=O)CCc3ccccc32)cc1C", "survival": "inactive: 80%"}, {"molecule": "CCc1ccc2[nH]c(=O)c(CN(CCCO)C(=O)Nc3ccccc3)cc2c1", "survival": "inactive: 73%"}, {"molecule": "CCCCc1ccc(NC(=O)c2cc(-c3ccc(C)c(F)c3)on2)cc1", "survival": "inactive: 50%"}, {"molecule": "Cn1c(=O)c2sccc2n2c(CCC(=O)N3CCN(c4ccc(F)cc4)CC3)nnc12", "survival": "inactive: 189%"}, {"molecule": "CCOc1ccc(C2C(C(=O)Nc3ccccc3)=C(C)Nc3nc(SCc4cccc(OC)c4)nn32)cc1", "note": "(stereo not given)", "survival": "inactive: 93%"}, {"molecule": "O=C(NCc1ccccc1)c1nc(S(=O)(=O)Cc2ccc(F)cc2)ncc1Cl", "survival": "active: -6%"}, {"molecule": "Cc1ccc(/C=C/c2onc(C)c2S(=O)(=O)N2CCC(C(=O)N3CCN(c4cccc(C)c4)C(C)C3)CC2)cc1", "note": "(stereo not given)", "survival": "inactive: 67%"}, {"molecule": "Cc1nn(C(C)C(=O)NC2CCC(C)CC2)c(=O)c2c1sc1ccccc12", "note": "(stereo not given)", "survival": "inactive: 58%"}, {"molecule": "CCc1nc(-c2cc(S(=O)(=O)N3CCN(c4ccc(OC)cc4)CC3)ccc2OC)no1", "survival": "inactive: 49%"}, {"molecule": "CCc1ccc(OCc2nc(-c3ccc(-n4cccc4)cc3)no2)cc1", "survival": "inactive: 82%"}, {"molecule": "CC(C)CCOc1ccc(C2N=C(N)Nc3nc4ccccc4n32)cc1", "note": "(stereo not given)", "survival": "active: -3%"}, {"molecule": "CCOc1ccc(-c2cn3c(n2)sc2cc(C(=O)NCCc4ccc(OC)cc4OC)ccc23)cc1", "survival": "active: 40%"}, {"molecule": "O=C(Nc1ccc(CN2CCCCC2)cc1)c1cccnc1Cl", "survival": "inactive: 71%"}, {"molecule": "COc1ccc(S(=O)(=O)c2cnc3cc(OC)c(OC)cc3c2N2CCCC(C)C2)cc1", "note": "(stereo not given)", "survival": "inactive: 116%"}, {"molecule": "O=C(O)c1ccc(Cn2cnc3cccnc32)cc1", "survival": "inactive: 61%"}, {"molecule": "CC1CCN(CC2CCN(C(=O)NCc3ccc(F)cc3)CC2)CC1", "survival": "inactive: 75%"}, {"molecule": "COc1ccc(Cn2c(CO)cnc2SCC(=O)Nc2ccc3c(c2)OCCO3)cc1", "survival": "inactive: 88%"}, {"molecule": "COc1cccc(COC(=O)c2ccc(-c3nnn(Cc4cccc(OC)c4)n3)cc2)c1", "survival": "inactive: 67%"}, {"molecule": "O=C(O)Cn1c(-c2cccs2)cc2cc(Cl)ccc21", "survival": "inactive: 75%"}, {"molecule": "O=C(Nc1cccc(C(F)(F)F)c1)c1cc(-c2ccc(Cl)s2)nc2ccccc12", "survival": "inactive: 66%"}, {"molecule": "CCOc1ccc(NC2SC(=O)N(Cc3ccccc3)C2=O)cc1", "note": "(stereo not given)", "survival": "active: 42%"}, {"molecule": "COc1cccc(NC(=O)NCCCNc2nc3cc(C)cc(C)c3cc2C#N)c1", "survival": "inactive: 59%"}, {"molecule": "COc1ccc(S(=O)(=O)NCc2cccs2)cc1C(C)(C)C", "survival": "inactive: 77%"}, {"molecule": "CCOc1ccccc1NC(=O)C(CC(C)C)NC(=O)C1CCC(C)CC1", "note": "(stereo not given)", "survival": "inactive: 105%"}, {"molecule": "COc1cccc2c1cc1c(=O)n(CC(=O)N3CCN(c4cccc(C(F)(F)F)c4)CC3)nc(C)n12", "survival": "inactive: 79%"}, {"molecule": "CCCCN(CC)C(=O)CSc1nc2n[nH]c(C)c2c(=N)n1-c1cccc(C)c1", "survival": "inactive: 88%"}, {"molecule": "COc1ccc(-n2nc3ccc(NC(=O)c4ccc(C#N)cc4F)cc3n2)cc1Cl", "survival": "inactive: 66%"}, {"molecule": "O=C(COc1ccccc1Cl)Nc1nnc(S(=O)(=O)N2CCCC2)s1", "survival": "active: 39%"}, {"molecule": "Cc1ccc(NC(=O)CCc2c(C)nn(-c3ccc(N4CCOCC4)nn3)c2C)c(C)c1", "survival": "inactive: 69%"}, {"molecule": "CCn1c(C(=O)NCc2ccccc2OC)cc2sccc21", "survival": "inactive: 99%"}, {"molecule": "CCOc1ccccc1CNC(=O)C1CCN(S(=O)(=O)c2c(C)noc2/C=C/c2ccccc2F)CC1", "survival": "inactive: 90%"}, {"molecule": "CC1=C(c2ccc(C(C)C)cc2)S(=O)(=O)N=C1N1CCC(C(=O)NCc2ccccc2)CC1", "survival": "active: -1%"}, {"molecule": "COc1ccc(CC(=O)Nc2cc(-c3cn4cccnc4n3)ccc2C)cc1OC", "survival": "inactive: 77%"}, {"molecule": "COc1ccc(-n2ccnc(NCc3cccs3)c2=O)cc1OC", "survival": "inactive: 85%"}, {"molecule": "Cn1c(-n2cccc2)c(-c2c(-c3ccc(F)cc3)[nH]c3c2c(=O)n(C)c(=O)n3C)c(=O)n(C)c1=O", "survival": "inactive: 63%"}, {"molecule": "COCCCNC(=O)Cn1nc(N2CCN(c3ccccc3)CC2)ccc1=O", "survival": "inactive: 91%"}, {"molecule": "CCCSc1oc(-c2ccco2)nc1S(=O)(=O)c1ccc(Br)cc1", "survival": "inactive: 55%"}, {"molecule": "COCCn1ccc2c(OCC(=O)Nc3c(C)cc(C)cc3C)cccc2c1=O", "survival": "inactive: 63%"}, {"molecule": "Cc1ccc(S(=O)(=O)n2nc(-c3ccc(Cl)cc3)nc2NCc2ccccc2)cc1", "survival": "inactive: 102%"}, {"molecule": "O=c1[nH]c2ccc(S(=O)(=O)NC3CCCCC3)cc2[nH]1", "survival": "active: 62%"}, {"molecule": "CC1CCc2c(sc3nnn(Cc4cccc(C(=O)OC(C)C)c4)c(=O)c23)C1", "note": "(stereo not given)", "survival": "inactive: 78%"}, {"molecule": "CC(=O)N1CCc2c(sc3c2c(=O)n(-c2ccc(F)cc2)c(=O)n3Cc2ccc(C#N)cc2)C1", "survival": "inactive: 107%"}, {"molecule": "COc1ccc(OC)c(N(CC(=O)N2CCN(c3ccccc3F)CC2)S(C)(=O)=O)c1", "survival": "inactive: 78%"}, {"molecule": "Cc1cc(C)cc(-n2ccnc(NCCc3ccccc3)c2=O)c1", "survival": "inactive: 101%"}, {"molecule": "COC(CN(C)S(=O)(=O)c1ccc(Br)cc1)OC", "survival": "inactive: 80%"}, {"molecule": "CCOC(=O)c1cc2c(=O)n3ccccc3nc2n(CC(C)C)c1=NC(=O)COc1ccc(Cl)cc1", "survival": "inactive: 136%"}]}]}
